Measurements reported in PubChem BioAssay AID624202 (National Center for Advancing Translational Sciences (NCATS), 2012).
About 4,000 (1.1%) of roughly 380,000 compounds were called active. The shares of active, inactive and inconclusive entries below differ from those in the screen. The call rests on the fitted dose curve; in most records, active means well fitted activation curve with a large enough effect; inconclusive means small, poorly fitted or top-dose-only effect; inactive means no such curve, though single readings can be large or run the other way. Potencies of inconclusive entries are doubtful fits and often do not repeat.

Test: qHTS Assay to Identify Small Molecule Activators of BRCA1 Expression; further: nearly all actives have a fitted effect of over 80% in size
Details: MCF7-BRCA1-FFLuc reporter, luminescence, 48 h; activation: at 46.1 µM (top of the series), scaled: vehicle 0%, 10 µM genistein 100% unless noted
Summary of the method: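 Cells: MCF7-BRCA1-FFLuc, 2000/well. Exposure: 48 h, 37 °C, 5% CO2. Read: luminescence, 15 min post-substrate. Controls: genistein 10 microM (maximal activation), DMSO (neutral).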
Potency means the concentration at half of the fitted maximal effect; tags describe the fitted curve by direction and shape.

Compound | Potency | activation
O=c1c2ccccc2nnn1CSc1ccccc1 | inconclusive: 1.78 µM [activator, full curve, poor fit] | 
CCOc1ccc(CNc2ccc3c(c2)ncn3C)cc1 |  | inactive: 64.6%
CC(NCc1ccc(OCc2ccc(Cl)cc2)cc1)C(O)c1ccccc1 (stereo not drawn) |  | inactive: -46%
CC(=O)c1cccc(NC(=O)C2CCCN(c3nnc(-n4cccc4)s3)C2)c1 (stereo not drawn) |  | inactive: -4.06%
COC(=O)c1ccc2c(CCO)c[nH]c2c1 | inconclusive: 35.5 µM [activator, single point] | 
O=C(Nc1c(-c2ccc3c(c2)OCO3)[nH][nH]c1=O)c1ccccc1 |  | inactive: 4.83%
Cc1c(C(=O)NCCc2ccc(Cl)cc2)sc2nc3n(c(=O)c12)CCC3 | inconclusive: 7.94 µM [activator, partial curve, poor fit] | 
S=C(NCCc1ccc(Cl)cc1)NC1CCCCC1 | inconclusive: 2 µM [activator, partial curve, poor fit] | 
O=C(NCC(c1ccco1)N1CCCCC1)c1cccs1 (stereo not drawn) |  | inactive: -10.4%
O=C(CNC(=O)C1CCCCC1)OC(C(=O)c1ccccc1)c1ccccc1 (stereo not drawn) | inconclusive: 25.1 µM [activator, single point] | 
O=C(O)c1ccccc1-c1csc(-c2ccccc2)n1 | inconclusive: 15.8 µM [activator, partial curve, poor fit] | 
COc1ccccc1Nc1nc(C2(C)CCC(=O)O2)cs1 (stereo not drawn) | inconclusive: 15.8 µM [activator, single point] | 
CCOc1ccccc1NC(=O)Cn1cnc2onc(-c3ccc(F)cc3)c2c1=O |  | inactive: -9.42%
CCOc1cc(C)nc(NCCc2ccc(OC)c(OC)c2)n1 |  | inactive: -0.0494%
CC(=O)N(C(C)=O)c1c(C#N)c(C)n(-c2ccccc2)c1C(=O)c1ccccc1 |  | inactive: -12.5%
O=C(CC1CCCC1)Nc1ccc(Br)cc1 | inconclusive: 14.1 µM [activator, partial curve, poor fit] | 
O=S(=O)(Cc1cc(-c2ccc(Cl)cc2)no1)c1ccccc1 | inconclusive: 31.6 µM [activator, single point] | 
CCC(C)C(=O)N1CCCC(c2nc(-c3cccs3)no2)C1 (stereo not drawn) | inconclusive: 11.2 µM [activator, partial curve, poor fit] | 
O=C(c1ccco1)N1CCN(Cc2ccccc2Br)CC1 | active: 15.8 µM | 
Cc1ccc(-c2csc(NC(=O)c3ccc(C)o3)n2)cc1 |  | inactive: 69.3%
CC(=O)c1cccc(NC(=O)NC2CCCc3ccccc32)c1 (stereo not drawn) |  | inactive: -3.8%
COc1ccc2o/c(=N/NC(=O)c3cccs3)c(C(N)=O)cc2c1 | inconclusive: 3.55 µM [activator, partial curve, poor fit] | 
O=C(COc1ccccc1)NCCSCc1ccccc1Cl | inconclusive: 11.2 µM [activator, partial curve, poor fit] | 
O=C(NC(=S)NCCO)c1sc2ccccc2c1Cl | active: 11.2 µM | 
CC(C)(C)OC(=O)COc1ccc(/C=N/NC(=O)CN2CCCCC2)cc1 | inconclusive: 8.91 µM [activator, partial curve, poor fit] | 
COc1cccc(-c2ccc(NC(=O)C3CCCN(Cc4cccc(C)n4)C3)cc2)c1 (stereo not drawn) |  | inactive: 74.6%
COC(=O)C(CCSC)NC(=O)c1cc2c(n(-c3ccc(C)cc3)c1=O)CC(C)(C)CC2=O (stereo not drawn) |  | inactive: 9.4%

Compound | Potency | activation
O=C(CNC(=O)c1ccccc1F)c1ccc(Br)cc1 | inconclusive: 2.51 µM [activator, full curve, poor fit] | 
COc1ccc(N2C(=O)c3ccccc3NC2c2ccc(OC)c(COc3ccc(NC(C)=O)cc3)c2)cc1 (stereo not drawn) |  | inactive: 77.4%
Cc1ccc(C)c2c1NC(C(=O)O)C1CC=CC21 (stereo not drawn) |  | inactive: 0%
CN(C(=O)CSc1ccc2c(c1)OCCO2)c1ccccc1 | active: 10 µM | 
CC(c1cccs1)N(Cc1ccco1)C(=O)Nc1ccc(Cl)c(Cl)c1 (stereo not drawn) |  | inactive: -49.3%
CC(=O)Oc1ccc2oc(=O)c3c(c2c1)CCCN3C(=O)CN1CCOCC1 |  | inactive: -10.4%
COC(=O)c1cc(C)sc1NC(=O)c1ccco1 |  | inactive: -1.62%
Nc1ccccc1C(=O)Nc1cccc2ccccc12 | inconclusive: 11.2 µM [activator, partial curve, poor fit] | 
CCOc1ccc(/C=C\C(C)=N\O)cc1 | active: 2.82 µM | 
c1ccc(CCCc2nc(-c3ccccn3)no2)cc1 | active: 7.08 µM | 
O=C(COC(=O)Cn1cnc2ccccc21)Nc1ccc2c(c1)C(=O)c1ccccc1C2=O | active: 8.91 µM | 
O=C(Oc1c(CN2CCOCC2)cc(Cl)c2cccnc12)c1ccccc1F |  | inactive: -77.6%
COc1ccc2cc(C3=CCCCC3)ncc2c1 | active: 2.82 µM | 
CCOC(=O)N/N=C\c1ccc(OC/C=C/c2ccccc2)cc1 | active: 8.91 µM | 
CC1CCc2c(sc(NC(=O)c3noc4c3CCCC4)c2C(N)=O)C1 (stereo not drawn) | inconclusive: 7.08 µM [activator, partial curve, poor fit] | 
O=C(/C=C/c1ccc2c(c1)OCO2)c1ccc[nH]1 | active: 7.94 µM | 
O=C(O)COc1ccc(Nc2ccccc2)cc1 |  | inactive: -21.8%
O=Cc1ccc(N2Cc3ccccc3C2)cc1 | inconclusive: 11.2 µM [activator, partial curve, poor fit] | 
Cn1c(CN2CCOCC2)nnc1SCC(=O)Nc1ccc([N+](=O)[O-])cc1O |  | inactive: 4.5%
COc1ccc(Nc2nnc(SCC3CCCO3)s2)cc1 (stereo not drawn) | inconclusive: 10 µM [activator, partial curve, poor fit] | 
CC(C)(C)c1cc(C(C)(C)C)cc(S(=O)(=O)CCc2ccccn2)c1 |  | inactive: -27.6%
CCC(C)c1ccc(NC(=O)C2=CC=CN3CCS(=O)(=O)N=C23)cc1 (stereo not drawn) | inconclusive: 3.98 µM [activator, partial curve, poor fit] | 
O=C(CN1C(=O)COc2ccc(S(=O)(=O)N3CCCC3)cc21)NCc1ccccn1 |  | inactive: -7.56%
CC(C)C(OC(=O)c1ccccc1)c1nccc2ccccc12 (stereo not drawn) | inconclusive: 14.1 µM [activator, partial curve, poor fit] | 
O=C(c1cc(-c2ccc(Cl)c(Cl)c2)on1)N1CCCCC1 | active: 3.98 µM | 
CCOc1ccc2nc(NC(=O)C3CCN(C(=O)c4ccco4)CC3)sc2c1 | inconclusive: 11.2 µM [activator, partial curve, poor fit] | 
